# Measurements as given in PMC4336329 (PLoS ONE, 2015).
# Among all 310,000 compounds or so, about 14,000 (4.5%) showed an effect of 50% or more. The effect is printed as a negative number. The list shows a part of the results.
# Target: human ether-à-go-go-related gene (hERG) potassium channel (human, UniProt Q12809)
# Experiment: primary screen, population patch clamp on CHO cells stably expressing hERG
# 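Note: peak tail current of the secondary pulse compared with the same well before compound.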
# Chain of human ether-à-go-go-related gene (hERG) potassium channel (Q12809 whole entry, looked up): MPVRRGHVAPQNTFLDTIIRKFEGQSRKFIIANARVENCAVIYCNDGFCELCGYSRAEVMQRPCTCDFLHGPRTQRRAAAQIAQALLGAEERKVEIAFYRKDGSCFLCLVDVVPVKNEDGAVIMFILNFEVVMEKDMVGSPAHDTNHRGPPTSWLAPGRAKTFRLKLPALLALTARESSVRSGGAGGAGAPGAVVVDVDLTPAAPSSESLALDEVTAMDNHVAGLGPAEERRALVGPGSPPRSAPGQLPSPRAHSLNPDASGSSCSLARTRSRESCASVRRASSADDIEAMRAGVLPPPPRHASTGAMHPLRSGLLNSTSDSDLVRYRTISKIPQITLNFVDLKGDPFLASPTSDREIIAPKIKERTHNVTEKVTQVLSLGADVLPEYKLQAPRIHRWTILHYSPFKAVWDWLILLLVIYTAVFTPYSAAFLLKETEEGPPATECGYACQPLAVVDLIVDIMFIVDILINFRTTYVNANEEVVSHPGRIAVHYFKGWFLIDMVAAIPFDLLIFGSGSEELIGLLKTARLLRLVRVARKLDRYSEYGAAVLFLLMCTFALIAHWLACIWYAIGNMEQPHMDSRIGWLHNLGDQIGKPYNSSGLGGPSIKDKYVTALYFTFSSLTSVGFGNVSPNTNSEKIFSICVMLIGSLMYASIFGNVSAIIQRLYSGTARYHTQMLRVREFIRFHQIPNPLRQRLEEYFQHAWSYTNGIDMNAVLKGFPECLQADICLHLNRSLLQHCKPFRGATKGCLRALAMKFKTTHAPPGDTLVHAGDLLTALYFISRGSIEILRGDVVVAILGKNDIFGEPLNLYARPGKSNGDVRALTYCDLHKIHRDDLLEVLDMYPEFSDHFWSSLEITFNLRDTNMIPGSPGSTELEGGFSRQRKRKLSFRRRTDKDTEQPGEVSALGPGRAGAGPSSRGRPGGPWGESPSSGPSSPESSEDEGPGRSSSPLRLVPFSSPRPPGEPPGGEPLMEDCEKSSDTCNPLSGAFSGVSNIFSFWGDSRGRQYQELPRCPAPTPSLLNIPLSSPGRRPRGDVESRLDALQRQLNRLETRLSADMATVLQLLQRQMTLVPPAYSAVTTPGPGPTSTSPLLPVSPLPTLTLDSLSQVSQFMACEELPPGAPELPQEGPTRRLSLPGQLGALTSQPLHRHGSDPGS
row,SMILES,"hERG current change (%, negative = inhibition) at 10uM"
1,C=CCN(CC=C)Cc1c(O)ccc2c1oc(=O)c1ccccc12,-71.6%
2,Cc1ccc(-n2nc3c(=O)n(CC(=O)c4ccc(F)cc4)nc(C)c3c2C)cc1,-7.19%
3,CC1CCCCN1C(=O)NC1CC(=O)N(c2ccc3c(c2)OCCO3)C1 (stereo not shown),5.7%
4,Cc1ccc(Cl)cc1N1CCN(C(=O)CSc2ccsc2[N+](=O)[O-])CC1,0.335%
5,CC(C)(C)OC(=O)[C@H](Cc1ccccc1)NC(=O)c1nc[nH]c1C(=O)NC1CCN(C(=O)OC(C)(C)C)CC1,4.55%
6,CCN1CCN(C(=O)c2cc3nc(-c4ccccc4)cc(C(F)(F)F)n3n2)CC1,-22%
7,CC(C)Nc1ccc(C(CC(N)=O)NC(=O)Cc2ccc(Br)cc2)cc1[N+](=O)[O-] (stereo not shown),0.496%
8,COc1ccc(OC)c(S(=O)(=O)NCCCn2ccnc2)c1,9.36%
9,Cc1cccc(C(=O)Oc2ccccc2/C=N/Nc2ccc([N+](=O)[O-])cc2)c1,10.3%
10,CC1CCC(C(=O)NC(C(=O)NCc2ccccn2)C(C)C)CC1 (stereo not shown),2.73%
11,CCCNCc1cc(OCC)c(OCC(N)=O)cc1Br,11.2%
12,CCOC(=O)c1sc(NC(=O)C(C)Sc2nc(N)cc(=O)[nH]2)nc1C (stereo not shown),2.51%
13,O=C(CCCN1C(=O)/C(=C/c2cccc(Br)c2)SC1=S)NCCCN1CCOCC1,-18.1%
14,O=C(C1CCN(c2nnc(-n3cccc3)s2)CC1)N1CCN(c2cccc(C(F)(F)F)c2)CC1,-22.8%
15,CC(C)c1ccc(Nc2nc(Cl)nc(Cl)n2)cc1,19.1%
16,CCOC(=O)C1(Cc2cccc(OC)c2)CCCN(Cc2cnn(C)c2)C1 (stereo not shown),-3.67%
17,CCOc1ccc2nc(SCC(=O)Nc3ccc4[nH]c(=O)[nH]c4c3)[nH]c2c1,27%
18,COc1ccc2c(c1)CC(C(=O)Nc1ccc(Cl)cc1)/C(=N/O)O2 (stereo not shown),20.8%
19,CC(Sc1nncn1C)C(=O)Nc1nnc(-c2ccccc2)s1 (stereo not shown),9.54%
20,CCOc1ccc(OCCCN(C)C)cc1,4.13%
21,CN(C)c1ccc(C(C#N)c2ccc(Cl)cc2)nn1 (stereo not shown),-28.2%
22,O=C(C/C(=N\NC(=O)c1ccccc1Br)C(F)(F)F)c1cccs1,-2.62%

row,SMILES,"hERG current change (%, negative = inhibition) at 10uM"
1,Cc1cc(Cn2nnc(-c3ccc(Br)cc3)n2)cc(C)c1O,12.2%
2,COc1ccc(C2CC(c3ccc([N+](=O)[O-])cc3)=NN2C(=O)c2ccccc2)cc1OC (stereo not shown),-21.8%
3,COC(=O)CSc1nnc(-c2c[nH]c3ccccc23)o1,-3.69%
4,Cc1cc(C(F)(F)F)n(-c2nc(C(=O)NNS(=O)(=O)c3ccccc3)cs2)n1,-0.529%
5,COC(=O)C1CCN(C(=O)CN2C(=O)NC(CCc3ccccc3)C2=O)CC1 (stereo not shown),3.41%
6,CCOc1ccc(-n2c(O)c(C=Nc3ccc(N(CC)CC)cc3)c(=O)[nH]c2=O)cc1,8.93%
7,Cc1ccc(S(=O)(=O)c2nc(C(C)(C)C)oc2N2CCOCC2)cc1,-6.06%
8,O=C(CC1C(=O)NCCN1C(=O)Nc1ccc(C(F)(F)F)cc1)Nc1ccc(F)cc1 (stereo not shown),14.6%
9,CNC(C)C(=O)NC(C(=O)N1CCCC1C(=O)NNc1ccccc1)C(C)C.O=CO (stereo not shown),5.01%
10,COCCn1c(SCC(=O)Nc2nnc(C)s2)nnc1-c1ccco1,17.7%
11,COC(=O)[C@@]12CCCN1[C@H](c1ccc(-c3ccccc3)cc1)[C@H]1C(=O)N(C)C(=O)[C@H]12.O=C(O)C(F)(F)F,-14.2%
12,CSc1ncccc1C(=O)Nc1ncc(C)s1,15.1%
13,Cc1ccc2nc3c(cc(C(=O)NC4CCCC4)c(=N)n3C3CCCCC3)c(=O)n2c1,-77.2%
14,CCOc1ccc(OCCN2C(=O)c3ccccc3C2=O)cc1,21.6%
15,CC(C)C(=O)NC(c1ccc([N+](=O)[O-])cc1)c1c(O)ccc2ccccc12 (stereo not shown),-1.18%
16,CCN(CC)C(=O)c1sc2nc(-c3ccccc3)ccc2c1N,5.54%
17,CC1CC(C)CN(S(=O)(=O)c2ccc(C(=O)N3CCOCC3)cc2)C1 (stereo not shown),-2.44%
18,COc1cc(OC)cc(C(=O)Nc2ccc3c(c2)n(C)c(=O)n3C)c1,-1.51%
19,NC(=O)c1nn(-c2ccccc2)nc1N,0.947%
20,O=C(O)CCC(=O)Nc1cccc(C(=O)Nc2cccc(Cl)c2)c1,-0.759%
21,CCOC(=O)c1cc2ccccc2nc1C,5.32%
22,CCN1CCN(Cc2cc(Br)cc(Br)c2O)CC1,-50.6%

row,SMILES,"hERG current change (%, negative = inhibition) at 10uM"
1,CC(C)OCCCN(C)C1CCN(S(=O)(=O)c2ccc(-c3cc(C(F)(F)F)no3)s2)CC1,-54.6%
2,Cc1ccc(-c2noc(CCC(=O)Nc3ccccc3C)n2)cc1,12.4%
3,CCOc1ccc(OCc2ccc(C(=O)N3CCCCC3)o2)cc1,-25.2%
4,CC1CCN(C(=S)c2ccc(-c3ccc(Cl)cc3Cl)o2)CC1,1.17%
5,CCOC(=O)C(=CNc1cc(C)ccc1-n1cccc1)C(=O)OCC,2.05%
6,Cc1ccc(NC(=O)CNC(=O)c2ccco2)cc1Cl,17%
7,COC(=O)c1ccc(Oc2nc3ccccc3n3c(C)nnc23)cc1,-1.15%
8,COc1ccc(NC(=S)N2c3ccccc3CC2C)cc1OC (stereo not shown),-5.96%
9,CCn1c(=O)c(C(=O)CN(C)Cc2cccc(OC)c2OC)c(N)n(Cc2ccccc2)c1=O,-50.3%
10,COc1ccc(-c2ccc(/C=N/NC(=O)Cc3nnc(N)s3)o2)cc1Cl,15%
11,COc1ccc(Cn2c(C3CC3)nc3ccc(NC(=O)C4CC4)cc3c2=O)cc1,5.63%
12,Nc1c(S(=O)(=O)c2ccccc2)c2nc3ccccc3nc2n1C1CC1,-2.42%
13,Cc1ccc(C)c2[nH]c(=O)c(CCNC(=O)c3ccc(S(=O)(=O)N4CCCC4)cc3)cc12,11.4%
14,Cn1cnnc1Sc1ccc(C(=O)NCCC23CC4CC(CC(C4)C2)C3)cc1[N+](=O)[O-],12.9%
15,Cc1csc(NC(=O)CCCC(=O)c2ccccc2)n1,-8.48%
16,Cc1c(-c2ccccc2)c(=O)oc2ccc(O)cc12,13.8%
17,Cc1csc(=O)n1CC(=O)OCC(=O)NCc1ccccc1,8.37%
18,CC(=O)OCC[N+](C)(C)C.[Br-],5.06%
19,O=C(Nc1ccncc1)c1ccc([N+](=O)[O-])cc1Cl,-3.15%
20,Cc1nnc(SCC(=O)NNC(=O)c2ccco2)n1-c1ccccc1,41.5%
21,CCN(CCO)C(=O)c1ccc2oc(Cc3ccc(Cl)cc3)nc2c1,7.92%
22,Cc1ccc([N+](=O)[O-])cc1N=C1C(=O)Nc2ccccc21,-20.5%

row,SMILES,"hERG current change (%, negative = inhibition) at 10uM"
1,Cc1ccc(S(=O)(=O)N2CCC(C(=O)NNC(=O)c3ccccc3O)CC2)cc1C,-3.47%
2,CCOc1ncccc1C(=O)OCC(=O)c1c[nH]c2ccccc12,0.0876%
3,COc1ccccc1C(CNC(=O)c1cccc(S(=O)(=O)Nc2ccc(C)cc2)c1)N1CCCC1 (stereo not shown),-29.8%
4,CC(C)N(Cc1nc(-c2ccccc2)no1)C(=O)C(Cl)(Cl)Cl,15.6%
5,O=C(Nc1nnc(-c2cccc(F)c2)s1)Nc1ccccc1F,11.6%
6,CCN(CC)CCn1c(N)nc2ccccc21.Cl,15.4%
7,Nn1c(SC/C=C/c2ccccc2)nnc1-c1ccccn1,-15.3%
8,Cc1cccc(N2CCN(C(=S)NC3CCCCC3)CC2)c1C,4.4%
9,O=S(=O)(Nc1cccc(-c2cn3c(n2)SCC3)c1)c1ccccc1F,-11.8%
10,CC(C)Cc1n[nH]c(=O)[nH]1,-6.31%
11,CCN1C(=O)c2cccc3c(Cl)ccc(c23)C1=O,14%
12,CCOc1ccc(OCc2ccc(C(=O)N3CCCC(C)C3)cc2)cc1 (stereo not shown),-27%
13,O=C(c1c(F)cccc1F)N1CCN(c2cccc(C(F)(F)F)c2)CC1,-5.7%
14,COc1ccc(C2/C(=C(\O)c3ccc4c(c3)OCCO4)C(=O)C(=O)N2Cc2cccnc2)cc1OC (stereo not shown),20.7%
15,COc1cccc(OCCOCCOc2ccc(C)cc2[N+](=O)[O-])c1,-14.5%
16,CCOCCCNC(=O)C1CC(=O)N(CCc2ccccc2)C1 (stereo not shown),9.05%
17,CCn1nc([N+](=O)[O-])c2c(-c3nc4ccccc4o3)c(N)n(CCCOC)c2c1=O,14.5%
18,COCCOC(=O)C1=C(C)NC(=O)NC1c1cc2c(cc1Br)OCO2 (stereo not shown),15.4%
19,COc1ccccc1Nc1nc(N)nc(CN2CCc3ccccc3C2)n1,-44.8%
20,COC(=O)c1scc(C)c1N/N=C(\C)c1ccc(F)cc1,-16.2%
21,COc1cc(CNC(C)c2ccccc2)cc(Br)c1OCc1ccc(F)cc1 (stereo not shown),15.6%
22,COCCNC(=O)c1onc(CSc2cc(C)ccc2C)c1C(=O)O,-2.53%
